Data reported in article PMC4336329 (PLoS ONE, 2015).
Screen size: about 310,000 compounds; about 2,200 (0.71%) showed an effect of 50% or more. Effects have a minus sign here. The list shows a part of the results.

Target: human ether-à-go-go-related gene (hERG) potassium channel (human, UniProt Q12809)
Test: primary screen, population patch clamp on CHO cells stably expressing hERG

Sequence of human ether-à-go-go-related gene (hERG) potassium channel (Q12809 whole entry, looked up): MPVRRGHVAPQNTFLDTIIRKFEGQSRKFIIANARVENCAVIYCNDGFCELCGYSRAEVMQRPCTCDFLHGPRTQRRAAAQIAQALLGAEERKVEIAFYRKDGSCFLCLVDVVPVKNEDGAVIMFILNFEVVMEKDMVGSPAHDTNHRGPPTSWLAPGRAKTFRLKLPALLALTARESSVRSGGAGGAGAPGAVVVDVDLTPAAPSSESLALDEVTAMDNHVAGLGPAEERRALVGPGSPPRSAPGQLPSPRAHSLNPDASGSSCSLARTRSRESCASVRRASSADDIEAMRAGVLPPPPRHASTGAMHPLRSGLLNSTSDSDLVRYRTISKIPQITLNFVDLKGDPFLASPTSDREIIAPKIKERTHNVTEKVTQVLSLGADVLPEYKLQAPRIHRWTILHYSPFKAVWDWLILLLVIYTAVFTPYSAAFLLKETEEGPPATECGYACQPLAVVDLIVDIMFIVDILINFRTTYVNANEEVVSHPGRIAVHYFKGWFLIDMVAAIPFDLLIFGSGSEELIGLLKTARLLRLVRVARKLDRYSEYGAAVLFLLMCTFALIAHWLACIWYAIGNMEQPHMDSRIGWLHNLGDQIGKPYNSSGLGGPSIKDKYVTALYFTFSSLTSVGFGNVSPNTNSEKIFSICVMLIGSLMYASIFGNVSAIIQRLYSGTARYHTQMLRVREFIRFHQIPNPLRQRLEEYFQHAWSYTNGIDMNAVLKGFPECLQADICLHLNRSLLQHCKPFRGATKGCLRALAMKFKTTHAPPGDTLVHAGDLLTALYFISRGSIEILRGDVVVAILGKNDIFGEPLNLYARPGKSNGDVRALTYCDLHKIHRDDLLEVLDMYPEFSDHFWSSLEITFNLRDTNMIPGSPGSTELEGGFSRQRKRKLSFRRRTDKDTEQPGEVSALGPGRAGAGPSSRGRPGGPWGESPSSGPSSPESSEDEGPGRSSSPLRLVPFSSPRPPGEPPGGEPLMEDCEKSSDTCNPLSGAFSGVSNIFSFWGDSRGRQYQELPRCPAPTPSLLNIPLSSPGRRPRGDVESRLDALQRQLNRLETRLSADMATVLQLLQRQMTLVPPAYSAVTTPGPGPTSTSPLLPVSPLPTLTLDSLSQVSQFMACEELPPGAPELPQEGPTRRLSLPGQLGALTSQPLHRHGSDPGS

First: O=C(NCc1ccccc1)c1ccc(CS(=O)(=O)Cc2ccc(F)cc2)o1
Second: CN(Cc1ccccc1)c1ccc(C(CC(N)=O)NC(=O)Cc2ccc(Br)cc2)cc1[N+](=O)[O-] (stereo not shown)
The “hERG current change (%, negative = inhibition) at 1uM” value of the first is higher: 17% for the first, 14% for the second.

Compared with Clc1cccc(-c2ccc(/C=N/n3cnnc3)o2)c1, O=[N+]([O-])c1cc(/C=N/n2c(-c3cccnc3)n[nH]c2=S)ccc1Cl is higher in “hERG current change (%, negative = inhibition) at 1uM” value: 5.64% for the first, 10.7% for the second.

First: COc1ccc(/C=C/C(=O)OCC(=O)NC2CCCC2)c(OC)c1
Second: COc1ccc(CN(CC(=O)NC2CCCC2)C(=O)c2onc(C(N)=O)c2N)cc1
The “hERG current change (%, negative = inhibition) at 1uM” value of the first is higher: 5.24% for the first, 0.575% for the second.

First: Cn1nc2c3ccccc3n(Cc3ccccc3)c2nc1=S
Second: CC(Sc1nc2ccccc2c(=O)n1CC1CCCO1)C(=O)N(C)c1ccccc1 (stereo not shown)
The “hERG current change (%, negative = inhibition) at 1uM” value of the first is higher: 13.4% for the first, -5.79% for the second.

First: O=C(NCC1CCCO1)c1ccc2c(c1)ncn2-c1cccc(F)c1 (stereo not shown)
Second: O=C(Nc1cccc(F)c1)c1cccc(S(=O)(=O)N2CCOCC2)c1
The “hERG current change (%, negative = inhibition) at 1uM” value of the first is higher: -2.48% for the first, -5.25% for the second.

Compared with CCc1ccc(O)c(CNCCNCc2cc(CC)ccc2O)c1, CCCCc1n[nH]c(=S)n1Cc1ccc(C)cc1 is lower in “hERG current change (%, negative = inhibition) at 1uM” value: 21.1% for the first, -5.06% for the second.

First: Cc1noc(C)c1COc1ccc(C(=O)OCc2nnc(-c3ccc(Cl)cc3)o2)cc1
Second: CCOC(=O)Cc1cc(-c2ccc(OC)cc2)nc2ccc3ccccc3c12
The “hERG current change (%, negative = inhibition) at 1uM” value of the first is higher: 17.2% for the first, 0.958% for the second.

Going from Cc1cc(C=C2C(=O)N(C)C(=S)N(C)C2=O)c(C)n1-c1cccnc1 to COc1ccc2c(c1)c(C(=O)N/N=C/c1cn(C)c3ccccc13)c(C)n2C, the “hERG current change (%, negative = inhibition) at 1uM” value falls from 9.58% to 8.71%.

Going from C=C(C)COc1ccc2c(CC)cc(=O)oc2c1C to CCc1cc(=O)oc2c(C)c(OCC(=O)N3CC[C@@]4(O)CCCC[C@H]4C3)ccc12, the “hERG current change (%, negative = inhibition) at 1uM” value falls from 15.8% to 0.579%.

Compared with CCOC(=O)Cc1csc(NC(=O)COc2ccc3c(C)cc(=O)oc3c2)n1, CC(=O)Nc1ccc(NC(=O)COC(=O)Cc2cccs2)cc1 is higher in “hERG current change (%, negative = inhibition) at 1uM” value: -2.96% for the first, 13.2% for the second.

Going from O=C(NCc1ccco1)c1cc(-c2ccccc2)c(N2CCOCC2)s1 to Cc1c(C(=O)Nc2ccccc2)cc(-c2ccccc2)n1CCCN1CCOCC1, the “hERG current change (%, negative = inhibition) at 1uM” value rises from 2.01% to 9.02%.

Going from COC(=O)c1ccccc1NC(=S)NC(=O)COc1ccc(C(C)C)cc1 to COCCCNC(=O)CC(NS(=O)(=O)c1ccc(OC)cc1)c1ccc(OC)cc1 (stereo not shown), the “hERG current change (%, negative = inhibition) at 1uM” value rises from 3.19% to 13.1%.

First: COC(=O)c1ccc(NC(=S)N2CCN(C)CC2)cc1
Second: CCOC(=O)c1c(C)c(C(=O)N2CCN(c3ccccc3)CC2)c(C)n1C
The “hERG current change (%, negative = inhibition) at 1uM” value of the first is lower: -0.0495% for the first, 11.2% for the second.

Going from O=C(/C=C/c1cccs1)Nc1cccnc1 to CCOC(=O)c1cccc(NC(=O)/C=C/c2ccc3c(c2)OCO3)c1, the “hERG current change (%, negative = inhibition) at 1uM” value rises from -5.36% to 3.87%.

Compared with O=C(O)CCCNC(=O)c1cncc(O)c1, O=C(NCCc1ccccc1)c1nc2ncccn2n1 is higher in “hERG current change (%, negative = inhibition) at 1uM” value: -8.94% for the first, 4.43% for the second.

First: CCOC(=O)c1c(N)sc2c(OCC)c(Br)ccc12
Second: CCCCn1c(C)c(C(=O)OCC)c2c(CN3CCCC3)c(O)ccc21
The “hERG current change (%, negative = inhibition) at 1uM” value of the first is higher: 8.57% for the first, -27.7% for the second.

First: O=C(CCn1c2c(c3ccccc31)CCCC2)NNC(=O)c1ccccc1C(=O)O
Second: OCCCn1c(-c2ccccc2)nc(=S)c2c1CCCC2
The “hERG current change (%, negative = inhibition) at 1uM” value of the first is higher: 10.1% for the first, 9.22% for the second.

First: CCN(CC(=O)Nc1ccccc1C(F)(F)F)C(=O)c1cc2c(s1)CCCCC2
Second: COc1cc2cc(CN(C(=O)Nc3ccccc3)C3CCCC3)c(=O)[nH]c2cc1OC
The “hERG current change (%, negative = inhibition) at 1uM” value of the first is higher: -0.525% for the first, -6.42% for the second.

Going from Cc1nc(Nc2ccc(Cl)cc2)c(C#N)c(=O)[nH]1 to Cc1cc(=O)c2cccc(Br)c2[nH]1, the “hERG current change (%, negative = inhibition) at 1uM” value falls from 15.2% to 7.87%.

Compared with Cc1ccc(C)n1/N=C1/NC(=O)CS1, Cc1cccc(N=C2NC(=O)CS2)c1 is lower in “hERG current change (%, negative = inhibition) at 1uM” value: 5.1% for the first, 3.4% for the second.

Compared with Cc1cc(N2CCOCC2)n2nc(C)c(-c3ccc(Cl)cc3)c2n1, O=C1CSC(c2ccc(Cl)cc2)N1Nc1nc(N2CCOCC2)nc(N2CCOCC2)n1 (stereo not shown) is higher in “hERG current change (%, negative = inhibition) at 1uM” value: 7.28% for the first, 12.2% for the second.

Compared with CC(C)NC(=O)NNC(=O)c1nn(-c2ccc(F)cc2)ccc1=O, COc1cc(OC)cc(C(=O)N[C@H](C(=O)OCC(=O)c2ccc(F)cc2)C(C)C)c1 is lower in “hERG current change (%, negative = inhibition) at 1uM” value: 5.13% for the first, 0.225% for the second.

Going from O=C(C1=C(O)C(=O)N(CC2CCCO2)C1c1ccccc1)c1ccco1 (stereo not shown) to O=C1N(Cc2ccccc2)c2ccc(Cl)cc2C12OCCO2, the “hERG current change (%, negative = inhibition) at 1uM” value rises from 16% to 23.5%.

Compared with CC(=O)Nc1ccc2nc(N)sc2c1, Cn1c(SCC(=O)Nc2ccc3nc(SCC(=O)NC4CC4)sc3c2)nnc1-c1ccccc1 is lower in “hERG current change (%, negative = inhibition) at 1uM” value: 9.3% for the first, 2.29% for the second.

Compared with CCOc1cccc(/C=N/NC(=S)Nc2cc(S(=O)(=O)N3CCOCC3)ccc2N2CCOCC2)c1O, Cc1ccc(S(=O)(=O)NC(C(=O)N2CCOCCOCCOCC2)C(C)C)cc1 (stereo not shown) is lower in “hERG current change (%, negative = inhibition) at 1uM” value: 13.9% for the first, 10.1% for the second.

First: COc1cc(-c2nc(C(=O)NCC3CCCO3)cc3c2[nH]c2ccccc23)cc(OC)c1OC (stereo not shown)
Second: COc1ccc(/C=C(\NC(=O)c2ccc(OC)c(OC)c2)C(=O)NCCc2c[nH]c3ccccc23)cc1
The “hERG current change (%, negative = inhibition) at 1uM” value of the first is higher: 8.16% for the first, 5.53% for the second.

Compared with COc1ccc(-c2cnnn2-c2ccc(NC(=O)/C=C/c3ccc(OC)c(OC)c3)cc2)cc1, CCc1ccc(NC(=O)CNC(=O)c2nn(-c3ccc(OC)cc3)c(=O)c3ccccc23)cc1 is higher in “hERG current change (%, negative = inhibition) at 1uM” value: -3.76% for the first, 8.44% for the second.

First: Nn1nnc2ccccc21
Second: N#CCOC(=O)c1c2c(nc3ccccc13)CCC2
The “hERG current change (%, negative = inhibition) at 1uM” value of the first is lower: 0.917% for the first, 11.7% for the second.

Compared with Cc1cc(-c2ccc(N=Nc3c(S(=O)(=O)[O-])cc4cc(S(=O)(=O)[O-])cc(N)c4c3O)c(C)c2)ccc1N=Nc1c(S(=O)(=O)[O-])cc2cc(S(=O)(=O)[O-])cc(N)c2c1O.[Na+], Cc1ccc(NS(=O)(=O)c2ccc(OCC(=O)NCc3ccncc3)cc2)cc1 is lower in “hERG current change (%, negative = inhibition) at 1uM” value: 15.1% for the first, 9.69% for the second.

First: CCOC(=O)c1c(CSc2ccccc2)n(C)c2ccc(O)c(CN3CCN(C)CC3)c12
Second: COc1cc2[nH]c(=O)n(CCC(=O)N3CCN(Cc4ccccc4)CC3)c(=O)c2cc1OC
The “hERG current change (%, negative = inhibition) at 1uM” value of the first is higher: 10.4% for the first, 8.65% for the second.

First: CSc1nc2nc(-c3ccccc3)cc(=O)n2[nH]1
Second: O=c1[nH]c(=S)c2ncn(-c3ccccc3)c2[nH]1
The “hERG current change (%, negative = inhibition) at 1uM” value of the first is lower: -16.2% for the first, 9.41% for the second.

Going from CCC(CC)C(=O)Nc1cccc(S(=O)(=O)c2cccc(NC(=O)C(CC)CC)c2)c1 to CC(C)(C)C(=O)Nc1cccc(S(=O)(=O)NC2=NCCC2)c1, the “hERG current change (%, negative = inhibition) at 1uM” value falls from 16.4% to 7.28%.

Going from COc1ccc(CN2CCCC(C(=O)N3CCCCC3)C2)c(OC)c1.O=C(O)C(=O)O (stereo not shown) to CCOC(=O)C1CCN(C(=O)c2sc3ncnc(N4CCC(C)CC4)c3c2C)CC1, the “hERG current change (%, negative = inhibition) at 1uM” value falls from 1.97% to -57.3%.

First: COc1ccc(N=C2SC(C(N)=O)CC(=O)N2Cc2ccc3c(c2)OCO3)cc1 (stereo not shown)
Second: COc1cccc(-c2nnc(SCC(=O)Nc3ccc4c(c3)OCCO4)n2Cc2ccco2)c1
The “hERG current change (%, negative = inhibition) at 1uM” value of the first is higher: 15.3% for the first, 4.97% for the second.

Compared with COc1cccc(C(=O)N=c2sc3c(C)ccc(OC)c3n2C)c1, COc1ccc(/C=N/Nc2nccnc2Cl)c(OC)c1 is higher in “hERG current change (%, negative = inhibition) at 1uM” value: 5.43% for the first, 9.29% for the second.

First: O=[N+]([O-])CC(c1ccccc1)c1c[nH]c2ccccc12 (stereo not shown)
Second: O=[N+]([O-])c1ccc(C[n+]2cccc3ccccc32)cc1.[Cl-]
The “hERG current change (%, negative = inhibition) at 1uM” value of the first is higher: 11.6% for the first, 4.56% for the second.

Compared with COc1ccccc1/C(C)=N/Oc1cc(N)cc([N+](=O)[O-])c1, Cc1nn(C)c(Oc2ccccc2)c1[N+](=O)[O-] is lower in “hERG current change (%, negative = inhibition) at 1uM” value: 12.9% for the first, 3.16% for the second.

Going from O=C(NCc1cccs1)c1ccccc1[N+](=O)[O-] to Cc1ccc(CNCC(O)c2ccccc2)s1.Cl (stereo not shown), the “hERG current change (%, negative = inhibition) at 1uM” value rises from 10.2% to 16.8%.

Compared with CCc1cc(-c2nc(N)ncc2-c2csc(C)n2)c(O)cc1OC, CCN(CC)CCCn1c(C)cc2c(c1=O)C(c1ccc(OC)c(OC)c1OC)C(C#N)=C(N)O2 (stereo not shown) is higher in “hERG current change (%, negative = inhibition) at 1uM” value: -4.12% for the first, 16.2% for the second.

Going from O=C1S/C(=C\c2ccc(O)c([N+](=O)[O-])c2)C(=O)N1Cc1cccc([N+](=O)[O-])c1 to O=C(O)c1ccc(C(=O)c2ccc3c(c2)C(=O)N(CCO)C3=O)cc1, the “hERG current change (%, negative = inhibition) at 1uM” value rises from 5.15% to 9%.

Compared with CC(C)CNS(=O)(=O)c1ccc(OCC(=O)NCC2CCCO2)c(Cl)c1 (stereo not shown), O=C(Nc1cccc(S(=O)(=O)Nc2ccc(Cl)cc2)c1)c1ccc2c(c1)OCCO2 is lower in “hERG current change (%, negative = inhibition) at 1uM” value: 5.05% for the first, 1.5% for the second.

Going from CCN(CC)C(=O)CSc1n[nH]c(=O)n1CCc1ccccc1 to CC(C)Cc1nnc(NC(=O)CSc2ccccn2)s1, the “hERG current change (%, negative = inhibition) at 1uM” value falls from 13.1% to 3.69%.

First: Cc1ccc(S(=O)(=O)N(C)Cc2nc(-c3ccccn3)no2)cc1
Second: O=C(O)c1c(Cl)nc2ccccn12
The “hERG current change (%, negative = inhibition) at 1uM” value of the first is lower: 8.03% for the first, 18% for the second.

Compared with C=CCn1nnnc1SCC(=O)Nc1cccc(OC)c1, CC(C)C(=O)Nc1cc2c3c(c1)CCC(=O)N3CCC2 is higher in “hERG current change (%, negative = inhibition) at 1uM” value: -8.14% for the first, 0.5% for the second.
